Measured values reported in publication PMC4336329 (PLoS ONE, 2015).
The whole screen tested about 310,000 compounds, of which about 2,200 (0.71%) showed an effect of 50% or more. Effects have a minus sign here. This is one part of the list.

What follows are molecules tested against human ether-à-go-go-related gene (hERG) potassium channel (human, UniProt Q12809) (assay: primary screen, population patch clamp on CHO cells stably expressing hERG).
Sequence of human ether-à-go-go-related gene (hERG) potassium channel (Q12809 whole entry, looked up): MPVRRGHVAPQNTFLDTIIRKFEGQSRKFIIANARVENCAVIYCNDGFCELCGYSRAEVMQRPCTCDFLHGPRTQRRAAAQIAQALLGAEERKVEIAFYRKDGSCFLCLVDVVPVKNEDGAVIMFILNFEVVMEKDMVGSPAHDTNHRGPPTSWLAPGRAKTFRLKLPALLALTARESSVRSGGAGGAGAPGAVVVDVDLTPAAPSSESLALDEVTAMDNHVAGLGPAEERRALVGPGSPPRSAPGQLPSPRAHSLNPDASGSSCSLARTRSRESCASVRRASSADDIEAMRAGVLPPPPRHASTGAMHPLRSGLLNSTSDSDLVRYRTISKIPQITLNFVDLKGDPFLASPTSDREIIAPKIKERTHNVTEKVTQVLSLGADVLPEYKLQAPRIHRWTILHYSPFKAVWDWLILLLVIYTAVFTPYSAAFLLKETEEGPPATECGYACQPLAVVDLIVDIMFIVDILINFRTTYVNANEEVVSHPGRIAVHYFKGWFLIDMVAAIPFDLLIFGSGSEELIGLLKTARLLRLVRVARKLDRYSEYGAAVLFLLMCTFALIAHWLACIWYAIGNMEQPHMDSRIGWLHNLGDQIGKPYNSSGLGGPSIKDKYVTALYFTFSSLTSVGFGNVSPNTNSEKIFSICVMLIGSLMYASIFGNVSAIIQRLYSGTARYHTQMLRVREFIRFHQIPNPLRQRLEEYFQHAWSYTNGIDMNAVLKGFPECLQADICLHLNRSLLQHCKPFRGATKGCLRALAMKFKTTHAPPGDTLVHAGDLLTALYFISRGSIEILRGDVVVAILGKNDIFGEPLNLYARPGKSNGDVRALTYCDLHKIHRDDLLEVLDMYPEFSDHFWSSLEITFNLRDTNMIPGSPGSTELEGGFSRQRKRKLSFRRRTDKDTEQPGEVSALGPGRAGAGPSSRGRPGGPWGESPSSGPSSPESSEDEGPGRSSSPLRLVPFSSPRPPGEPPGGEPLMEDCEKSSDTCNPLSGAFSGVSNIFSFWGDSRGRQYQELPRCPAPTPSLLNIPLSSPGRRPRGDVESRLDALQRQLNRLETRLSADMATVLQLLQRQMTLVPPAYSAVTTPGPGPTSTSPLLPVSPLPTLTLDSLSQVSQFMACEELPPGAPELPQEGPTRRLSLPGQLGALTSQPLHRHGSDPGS

| Compound | hERG current change (%, negative = inhibition) at 1uM |
| --- | --- |
| CCOC(=O)CSc1nnc(CNc2nc(-c3ccccc3)cs2)n1C | -8.88% |
| O=c1[nH]c2ccccc2cc1CN(c1ccccc1)S(=O)(=O)c1ccccc1 | 6.79% |
| CCN(c1ccccc1)S(=O)(=O)c1ccc(F)cc1 | 8.48% |
| CCN(Cc1nc2ccccc2c(=O)[nH]1)C(=O)c1cc2c(s1)CCCCC2 | 18.4% |
| CN(C)C(=O)Nc1cccc(OC(=O)N(C)C)c1 | 15% |
| CC1(C)C(C(=O)OCC(Cl)(Cl)Cl)N2C(=O)C(NC(=O)Cc3ccccc3)C2S1=O (stereo not shown) | 8.85% |
| Cc1cc([P+](=O)O)c(C)n1-c1ccc(Br)cc1 | 16.1% |
| COCCN(C(=O)c1csnn1)C(C(=O)NC1CCCC1)c1ccccc1 (stereo not shown) | 11.2% |
| C=CCSc1ncnc2c1oc1nc3c(cc12)COC(C)(C)C3 | 14.1% |
| CC1Cc2ccccc2N1C(=O)c1ccnc(C(C)(C)C)c1 (stereo not shown) | 17.6% |
| CCOC(=O)CNC(=O)c1ccc2[nH]c3c(c2c1)CCCC3 | 14.5% |
| Cl.Clc1cccc(NC2=NCCC2)c1 | 8.75% |
| COc1ccc(C(=O)N(C)C2CCCN(Cc3ccccc3F)C2)cc1C (stereo not shown) | 7.63% |
| O=C(Nc1ccc(F)cc1F)c1csc(-c2ccccc2)n1 | 3.26% |
| CCN(CC)Cc1nc2c(c(=O)[nH]1)C1(CCCCC1)Cc1ccccc1-2 | 12% |
| Cc1scc(C(=O)NNC(=O)CCC(=O)O)c1C | 6.37% |
| CC(=NCCc1ccccc1)C1=C(O)COC1=O | 8.33% |
| COc1ccc(/C=N/OCC(=O)Nn2c(C)nc3ccccc3c2=O)cc1 | 2.25% |
| Cc1nc2ccc(Cl)cc2nc(C)/c1=N\O | 10% |
| CC(C)C(=O)Nc1ccc(C(=O)Nc2ccc(S(=O)(=O)N3CCOCC3)cc2)cc1 | 12.4% |

| Compound | hERG current change (%, negative = inhibition) at 1uM |
| --- | --- |
| COc1ccc(C(Nc2ccccn2)c2c(NC(=O)c3ccco3)sc(C)c2C)cc1OC (stereo not shown) | 7.04% |
| COc1ccc(C2=NN(C(=O)CN3CCCCC3)C(c3ccc(C)cc3)C2)cc1 (stereo not shown) | -33% |
| O=C(NNS(=O)(=O)c1ccc(F)cc1)c1ccc([N+](=O)[O-])cc1 | 14.2% |
| CN(CCc1ccccn1)C(=O)CC1C(=O)NCCN1Cc1ccc(-c2ccccc2)cc1 (stereo not shown) | 5.5% |
| Cc1ccc(-n2c(SCC(=O)NCCN3C(=O)CSC3=O)nnc2-c2ccccc2)cc1 | 27% |
| CC(C)n1ncc2c(C(=O)NCC(=O)Nc3ccccc3Br)cc(C3CC3)nc21 | 2.02% |
| CCOC(=O)c1[nH]c(C)c(C(=O)NC2CCCC2)c1C | 0.699% |
| Cc1nc(N2CCOCC2)nc(N2CCCCC2C)c1[N+](=O)[O-] (stereo not shown) | 9.24% |
| NNC(=O)c1ccc2c(c1)S(=O)(=O)NNC2=O | 7.07% |
| COc1ccc(OC)c(N2C(=O)/C(=C/c3ccco3)C(=O)NC2=S)c1 | 14.1% |
| COc1cc(SC)ccc1C(=O)N(Cc1ccccc1)c1ccccc1 | 14% |
| Cc1nn(-c2ccc(N3CCCCC3)nn2)c(C)c1CCC(=O)Nc1cc(F)ccc1F | 10.2% |
| O=C(NC(=S)NCc1ccncc1)c1ccccc1 | 10.3% |
| Cc1cccc(OCC(=O)NNC(=O)c2ccccc2OCc2c(C)noc2C)c1 | -0.118% |
| CC(C)C1=NN2C(=N)CC(=O)N=C2S1 | 9.22% |
| Br.CN1CCN(c2nc(-c3cccs3)cs2)CC1 | 4.91% |
| COc1ccc(C(=O)NCC(=O)OCc2ccc(F)cc2Cl)cc1OC | 11.2% |
| CC(C)c1ccc(C2CC(=O)N3CN(C)CSC3=C2C#N)cc1 (stereo not shown) | 4.51% |
| O=C(NCCCl)Nc1cc([N+](=O)[O-])ccc1Cl | 9.43% |
| CN(C)/C=N/c1cc(=O)n(Cc2ccccc2)c(=O)n1C | 4.2% |

| Compound | hERG current change (%, negative = inhibition) at 1uM |
| --- | --- |
| CCN1CCN(c2cc(=O)n3ccccc3n2)CC1 | 16.5% |
| CN(NC(=O)c1ccccc1F)c1ncccc1[N+](=O)[O-] | 14.1% |
| Cc1ccccc1OCC(=O)NNC(=O)Nc1ccccc1 | 9.56% |
| Cc1ccc(S(=O)(=O)Nc2ccccc2F)cc1C(=O)NNC(=O)c1csc(N2CCOCC2)n1 | 6% |
| O=C(NCc1ccc2c(c1)OCO2)c1ccc2c(c1)C(=O)N(CC1CCCO1)C2=O (stereo not shown) | 6.29% |
| COc1ccccc1Oc1cc(C#N)c(C#N)cc1-n1nnc2ccccc21 | 0.887% |
| O=C(NCc1ccncc1)c1ccc2nc(Cc3ccccc3F)oc2c1 | 8.99% |
| CCc1ccc(NC(=O)CS(=O)CC(=O)Nc2ccc(N3CCOCC3)cc2)cc1 (stereo not shown) | 3.75% |
| Cc1nc2scc(C)n2c(=O)c1S(=O)(=O)Nc1ccc(OC(F)(F)F)cc1 | 17.5% |
| Cc1ccc(-n2ncc3c(NCc4cccnc4)ncnc32)c(C)c1 | -4.19% |
| CC(C)(C)OC(=O)NCCCCCC(=O)N/N=C/c1coc2ccccc2c1=O | -0.635% |
| COCc1c(C(=O)OCC(=O)NCCc2ccc(S(N)(=O)=O)cc2)oc2ccccc12 | 5.78% |
| Cc1cc(C(=O)NNC(=S)NC2CCCCC2)cs1 | 6.05% |
| O=C(CN1C(=O)c2ccccc2C1=O)Nc1cccc(O)c1 | 13% |
| CCN(CC)S(=O)(=O)c1ccc(Cl)c(NC(=O)COC(=O)/C=C/c2cc(OC)c(OC)c(OC)c2)c1 | 11.4% |
| COc1cc(C)cc(OC)c1OCC(=O)Nc1cc(C)on1 | 21.5% |
| COC(=O)c1c(-c2cc(C)ccc2C)csc1NC(=O)C1CC=CCC1C(=O)O (stereo not shown) | -7.42% |
| CN(C)P(=O)(C(Cl)=C(N1CCCCC1)N1CCCCC1)N(C)C | 6.95% |
